Measurements as given in publication PMC6212790.
Some of the results follow. At the low end of the ranking the order means little.

target: T1, GST-Rok (full length) (UniProt O34857); experiment: protein binding microarray; details: Rok is a gene silencer of Bacillus subtilis; high values mean tight binding; most listed sequences are background and not binding sites; double strand, one strand shown;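 note: rank score from −0.5 (least bound) to 0.5 (best bound)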
T1 sequence: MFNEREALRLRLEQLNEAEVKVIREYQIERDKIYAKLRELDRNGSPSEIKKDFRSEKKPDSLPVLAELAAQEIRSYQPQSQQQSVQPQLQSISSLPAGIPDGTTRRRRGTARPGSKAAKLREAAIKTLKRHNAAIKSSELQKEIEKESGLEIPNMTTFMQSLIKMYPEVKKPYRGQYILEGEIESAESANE

Sequence | binding signal [E-score]
TCCTCTAA | -0.133
CACGCCTG | -0.118
AATCTCAT | 0.185
GACTACCA | 0.095
CTGGGTCC | -0.329
CTCTCCCC | -0.29
CCCCGTGC | -0.3
ACCTCGTA | 0.12
AGGTCTAT | 0.0932
GAAATTAC | 0.286
AAACTTCA | 0.104
TCCCGGGA | -0.39
CGTAAACG | -0.189
CAGGATAA | 0.0242
CCGGAGCC | -0.308
CCCCTGGC | -0.412
CTTGCAGA | -0.149
ATAGGTCA | 0.156
ACTTTCTG | 0.175
ATGAGTCG | 0.0621
AGTAGGTC | 0.069
GCCACTTA | -0.161
GAGAAAGA | -0.122
CAGACTAG | 0.113
ATAGCATA | 0.308

Sequence | binding signal [E-score]
CGACAGAG | -0.0104
TCGGCTCA | -0.225
CCGCAGCC | -0.302
ATTGAACA | 0.191
ATACAAAT | 0.32
GGGCAATA | -0.0992
CGGGCAAA | -0.106
CGATGTGC | -0.0809
GCTTGGGA | -0.226
CAGGCTAG | -0.159
AAGGTGAG | -0.223
AATTCCGA | 0.185
AACTTATT | 0.0475
CCCAGTGA | -0.232
AACTCGGT | 0.156
AAGATACG | 0.164
CGTCGGTA | -0.0839
AGTAAATG | 0.19
AAGGTCGC | -0.255
GGCAACCA | -0.0766
GGAAGTTA | 0.0847
AGATCCAA | 0.0267
ATCGGCTC | -0.206
TAGAGCAA | 0.0133
AGAATTTC | 0.301

Sequence | binding signal [E-score]
GAAGGGGC | -0.342
GTTTATGA | 0.144
AAAACTTT | 0.0531
AAAATTAT | 0.215
AGGCTCCA | -0.278
AAGATAAA | 0.251
AATAAAGG | 0.0251
GGTTGTGA | -0.103
CTAATTCA | 0.215
CCTGCGAG | -0.212
ACCAAGAT | 0.101
GGCATTCA | -0.109
CAAATCCC | -0.231
CAGTTCCA | -0.114
TAGAGATA | 0.126
CCACTTGC | -0.132
AACCAGAC | -0.302
ACCTGGCG | -0.215
CACCAGGA | -0.158
GAGGCCCC | -0.357
CTATTAAC | 0.233
AGCGTAGA | 0.167
ATGTGGGA | 0.0228
AGTACGAA | 0.249
AACCATAA | 0.0915

Sequence | binding signal [E-score]
CCCCCGTC | -0.291
CCGTAGCC | -0.21
CTAAATAG | 0.172
ATCTAGCG | 0.155
TCCTTAAA | -0.0816
TGCAGACA | -0.0603
AAGTTCCC | -0.156
GCTATAAA | 0.28
CCTAAGTC | -0.0792
CAACAGTC | -0.08
GTGCGATA | 0.0114
CCTACGGA | -0.227
CTCGGTTA | -0.0984
TAATTCCA | 0.213
AGGGCCCA | -0.398
AGCTCTCC | -0.249
TGCTAAAA | 0.186
GCAAATCC | -0.0298
CATGTCCA | 0.0915
AATTCCAA | 0.144
AGGAATTG | 0.172
AGGGACAC | -0.307
AGATACAA | 0.259
ATGTAGGA | 0.117
AACGCCTT | -0.0654

Sequence | binding signal [E-score]
ATTCTAGA | 0.309
AAAGTTCG | 0.224
CTTACAGC | 0.00242
AATGCGAT | 0.104
ACTACTAC | 0.4
GTACTGGA | 0.206
CAGACTGG | -0.0444
AAACCATA | 0.166
CATACTCC | -0.0183
GCTCCCCC | -0.494
CTCGGGAC | -0.164
AAGTACAA | 0.276
AATGTGCG | 0.0329
CTTCCTTC | -0.205
AGCCACGA | 0.0501
TTAGGCAA | -0.017
TAACTTAA | 0.205
GGCAATTA | 0.168
CACAGAGG | -0.119
CAGCTTTA | 0.119
TGTTCCAA | -0.165
CGTAAAGA | -0.0014
CGCCTTTA | -0.317
AACTGTCG | 0.0211
AAATTGGT | 0.167

Sequence | binding signal [E-score]
GCTCACCC | -0.372
CATTGACA | 0.0572
ATTAAGCA | 0.0409
CTACGGCA | 0.0888
CATGAAGA | -0.0315
ACGTGCTG | 0.0174
TACGAGCA | 0.0667
ACGTTCAG | -0.159
AAGCCCCA | -0.376
GACCGCTA | 0.0771
AGGGCCGA | -0.309
AATTTGCA | 0.0774
ACGCACTG | 0.00561
CCAGATAG | 0.188
GGCTCCAC | -0.258
CCGATGAA | -0.0937
GGCTAGCC | -0.21
AAACAACA | 0.0398
CGTAGCTC | 0.0159
CGCAAAAA | 0.0475
TAGGCAAA | 0.0124
AGTCTATC | 0.0612
AGCTAGCT | 0.0639
CCTGGGCC | -0.173
GACAGGAC | -0.193

Sequence | binding signal [E-score]
ATTAGAAA | 0.233
CAAAAACC | -0.0284
GATCAGAC | -0.039
CGCGAAAG | -0.235
CCCGGTAA | 0.0826
CGTAATCC | -0.0881
GGCATGCA | -0.174
AAAGACTT | -0.0323
ATTATCCG | -0.0462
AAAAGGTA | 0.246
ACTGGGAG | -0.013
ATTGCAAT | 0.256
AAAAAGAA | 0.0931
ACTAACTC | 0.12
GTGCGCTA | -0.149
CAATGACC | -0.193
ATAAACCC | -0.102
ATCCCTGA | -0.0995
AGATTTCC | 0.135
GCCCGTGA | -0.329
AATCTCAG | -0.0198
GAATAGCA | 0.11
